Laboratory results as given in ChEMBL document CHEMBL5308541, “MAIP: An Open-Source Tool to Enrich High-Throughput Screening Output and Identify Novel, Druglike Molecules with Antimalarial Activity” (ACS Med Chem Lett, 2023).
The campaign covered roughly 150,000 compounds. About 540 (0.36%) showed an effect of 50% or more. This is one part of the list.

These molecules were tested on Plasmodium falciparum (assay: Primary screen in NF54 nanoGlo assay, in single point, at 2uM, 72h; a lower Z score goes with more inhibition). Details: timepoint 72 hour.
Format: functional, Erythrocyte
`CC(C(=O)Nc1ccc(OC(F)F)cc1)N1CCCC(CN2CCN(c3ccccn3)CC2)C1` (stereo unspecified) was tested, and the “% Inhibition” value was 0% and the Z score was 0.01. For `Cc1noc(C)c1CN1CCN(c2cc(NCC3CC3)ncn2)CC1`, the “% Inhibition” value was -5% and the Z score was 0.78. In the case of `Cc1nn(C(C)(C)C)c(C)c1C(=O)n1cc(N)nn1`, the “% Inhibition” value is reported as -14% and the Z score is reported as 2.06. `FC(F)(F)c1c[nH]c(C2CCN(CCCN3CCCCC3)CC2)n1` was tested, and the “% Inhibition” value was 4% and the Z score was -0.85. With `CO[C@@H](C(=O)Nc1nn[nH]n1)c1ccccc1C(F)(F)F` the “% Inhibition” value was 0% and the Z score was 0.01. In the case of `C[C@@H](c1ccc(-c2cc(N)nc(N3CCOCC3)n2)cc1)N1CCCC1`, the “% Inhibition” value is reported as -1% and the Z score is reported as 0.32. For `CN1CCC(O)C(CN2CCc3[nH]c4c(Cl)cccc4c3C2)C1` (stereo unspecified), the “% Inhibition” value was 11% and the Z score was -1.88. For `CCc1nn2c(=N)c(-c3nc4ccccc4[nH]3)n[nH]c2c1-c1ccc(F)cc1`, the “% Inhibition” value was -7% and the Z score was 1.35. For `Cc1cc(-c2cccc(C(=O)N(C)C3CCN(C)CC3)c2)cn2ccnc12`, the “% Inhibition” value was 7% and the Z score was -1.51. `O=C(NCc1cc2ccccc2s1)N[C@H](c1ccncc1)C1CC1` was tested, and the “% Inhibition” value was -2% and the Z score was 0.45. With `C[C@H](NC(=O)N1CCN(c2cccc3[nH]ccc23)CC1)C1CCC(F)CC1` (stereo partly specified) the “% Inhibition” value was -2% and the Z score was 0.3. With `Cc1cc(NCCCN2CCCC[C@@H]2CO)nc(-c2ccccc2O)n1` the “% Inhibition” value was -12% and the Z score was 2.08. `O=C(Cc1cccc(O)c1)NCc1cc(=O)[nH]c2ccccc12` was tested, and the “% Inhibition” value was -4% and the Z score was 0.76. `N#Cc1cnccc1NC1CCN(C[C@H]2CCOC2)CC1` was tested, and the “% Inhibition” value was -1% and the Z score was 0.08. With `Cc1ccc2[nH]cc(-c3cc(N4CCOCC4)nc(N)n3)c2c1` the “% Inhibition” value was 52% and the Z score was -10.41. `C[C@@H](c1cccc(F)c1)N1CCN(c2ccnc(N3CCOCC3)n2)CC1` was tested, and the “% Inhibition” value was -5% and the Z score was 0.84. For `N#Cc1c(C(F)(F)F)cc(N2CCN(Cc3cccc4ccccc34)CC2)n2c1nc1ccccc12`, the “% Inhibition” value was 0% and the Z score was -0.02. With `Cc1nnc(C(C)NC2CCCc3cc(C#N)ccc32)[nH]1` (stereo unspecified) the “% Inhibition” value was 0% and the Z score was 0.08. `CCc1nnc(NCCN2CCC(c3ccccc3)CC2)o1` was tested, and the “% Inhibition” value was 0% and the Z score was -0.09. With `CN1C[C@@H](NC2CCN(c3ccncc3)CC2)[C@H](c2cncn2C)C1` the “% Inhibition” value was -15% and the Z score was 2.26. `CN(CCNc1nccc(-c2ccncc2)n1)S(C)(=O)=O` was tested, and the “% Inhibition” value was -2% and the Z score was 0.53. In the case of `CC1c2cccn2CCN1C(=O)NC1CCN(c2c(F)cccc2F)C1=O` (stereo unspecified), the “% Inhibition” value is reported as -3% and the Z score is reported as 0.44. In the case of `CN(C)c1ccc(-c2ccc(C(=O)NCCN3CCCCC3)cc2)cn1`, the “% Inhibition” value is reported as 8% and the Z score is reported as -1.44. For `C[C@H](O)CN1CCC(CN(Cc2coc(-c3ccc(F)cc3)n2)Cc2coc(-c3ccc(F)cc3)n2)CC1`, the “% Inhibition” value was 3% and the Z score was -0.71. With `O=C(c1cnn(-c2cccc(F)c2)c1C1CCNCC1)N1CCN(c2ccccn2)CC1` the “% Inhibition” value was -7% and the Z score was 1.2. For `CN(CCCc1nccn1C)Cc1cnc2c(-c3ccccc3)cnn2c1`, the “% Inhibition” value was -4% and the Z score was 0.77. For `CNc1nc(Nc2cccc(C(F)(F)F)c2)ncc1Cl`, the “% Inhibition” value was 12% and the Z score was -2.43. For `CC(=O)c1cc(C(=O)N2CCCCCC2C2CCCCC2=O)ccc1C` (stereo unspecified), the “% Inhibition” value was 3% and the Z score was -0.55. In the case of `COc1cccc(-c2noc3ncnc(NCCO)c23)c1`, the “% Inhibition” value is reported as -6% and the Z score is reported as 1.12. For `NC(=O)c1ccc(CNC(=O)NCC[C@H](O)c2ccccc2)o1`, the “% Inhibition” value was -10% and the Z score was 1.46. With `CN(C)c1nc(N2CCC(N3CCN(CCO)CC3)CC2)ncc1F` the “% Inhibition” value was -1% and the Z score was 0.13. In the case of `C1CCN2CCC[C@@H](CN3CCC(Cc4noc(C5CC5)n4)CC3)[C@H]2C1`, the “% Inhibition” value is reported as -9% and the Z score is reported as 1.58. With `CC[C@H](C)N(CC)Cc1cc(O)ccc1Cl` the “% Inhibition” value was 0% and the Z score was 0.02. `Cc1cc(CC2CN(c3cc(C4CC4)ncn3)CC2O)[nH]n1` (stereo unspecified) was tested, and the “% Inhibition” value was 0% and the Z score was 0.05. In the case of `CNc1cc([C@H]2C[C@@H](NC(=O)c3[nH]c4ccccc4c3Cl)C2)nc(N)n1`, the “% Inhibition” value is reported as -4% and the Z score is reported as 0.68. For `O=C(c1[nH]c2ccc(Cl)cc2c1-c1ccccc1)N1C2CCNCC1CC2` (stereo unspecified), the “% Inhibition” value was 3% and the Z score was -0.66. For `CC(CCN1CCCC(c2nnc[nH]2)C1)N1CCCC(c2nnc[nH]2)C1` (stereo unspecified), the “% Inhibition” value was 6% and the Z score was -1.01. For `COc1cc(CCNc2cc(C3CCN(C)CC3)ncn2)cc(OC)c1`, the “% Inhibition” value was -2% and the Z score was 0.29. In the case of `F[C@H]1C[C@@H](CNc2ccnc3ccncc23)N(Cc2cncnc2)C1`, the “% Inhibition” value is reported as -7% and the Z score is reported as 1.03. For `Cc1cc(C(=O)O)c(F)c(S(=O)(=O)Nc2cccc3[nH]ncc23)c1`, the “% Inhibition” value was -9% and the Z score was 1.51. With `O=C(Nc1ccc(Oc2ccccc2)cc1)N1CC2COCCC2(CO)C1` (stereo unspecified) the “% Inhibition” value was -11% and the Z score was 1.85. With `Cc1nc(CN2CCC3(CC2)CN(c2ncnc4[nH]ccc24)CCO3)c[nH]1` the “% Inhibition” value was 5% and the Z score was -0.79. For `COc1nc(-c2cccc([C@H](C)N3CCCC3)c2)ncc1F`, the “% Inhibition” value was 7% and the Z score was -1.15. `Fc1ccc(C2CN(c3nccc(NC4CCCOC4)n3)CCO2)c(Cl)c1` (stereo unspecified) was tested, and the “% Inhibition” value was -3% and the Z score was 0.69. `N#CCCCC(=O)N1CCC(S(=O)(=O)N2CCCC2)CC1` was tested, and the “% Inhibition” value was 6% and the Z score was -0.97. With `FC(F)(F)Oc1ccc(N2CCC(NC3CCCCCC3)CC2)cc1` the “% Inhibition” value was -6% and the Z score was 1.23. For `O=C(CN[C@H]1CCCc2c(O)cccc21)Nc1ccc(N2CCCCC2)nc1`, the “% Inhibition” value was -3% and the Z score was 0.45. `Cn1nnc(-c2ccc(C(=O)NC3CCN(C4CCOCC4)CC3)cc2)n1` was tested, and the “% Inhibition” value was -8% and the Z score was 1.32. With `CC1(NS(=O)(=O)N2CCCC2)CCNCC1` the “% Inhibition” value was -4% and the Z score was 0.85. With `CCn1cc(-c2csc(Nc3nc(-c4ccc(OC)c(OC)c4)cc(C(F)F)n3)n2)c(C)n1` the “% Inhibition” value was -6% and the Z score was 0.98. `Fc1cc(-c2nc3ccncc3[nH]2)ccc1N1CCOCC1` was tested, and the “% Inhibition” value was 5% and the Z score was -0.8. With `Nc1cccc2c(N3CCC(Nc4cccnn4)CC3)nccc12` the “% Inhibition” value was 0% and the Z score was -0.06. In the case of `CCCn1cc(NCc2ccc(N3CCN(C)CC3)c(F)c2)cn1`, the “% Inhibition” value is reported as -12% and the Z score is reported as 2.58. In the case of `Cc1cccc(N2CCC(NC3CCC4(CCNCC4)CC3)CC2)c1`, the “% Inhibition” value is reported as -8% and the Z score is reported as 1.32. `O=C(NCCCN1CCCC[C@@H]1CO)c1cccc(-c2cn[nH]c2)c1` was tested, and the “% Inhibition” value was -10% and the Z score was 1.76. `CCCOc1ccc(NC(=O)c2oc3cc(Br)ccc3c2C)c2cccnc12` was tested, and the “% Inhibition” value was -6% and the Z score was 0.89. `CNC(=O)c1cc(-c2cc(NC)nc3[nH]ccc23)ccc1Cl` was tested, and the “% Inhibition” value was 3% and the Z score was -0.57. For `CC1CN(c2ccc(CNc3nc4cc(C(F)(F)F)ccc4s3)cn2)CC(C)O1` (stereo unspecified), the “% Inhibition” value was -12% and the Z score was 2.12.
